Consider 27 molecules from PubChem BioAssay AID1963576 (National Center for Advancing Translational Sciences (NCATS), 2024).

The whole screen tested about 46,000 compounds, of which about 60 (0.1%) were called active. Another 3% or so got no clear call; they are omitted. Calls come from the whole dose curve; as a rule, active = well fitted inhibition curve with a large enough effect; inconclusive = small, poorly fitted or top-dose-only effect; inactive = no such curve, though single readings can be large or run the other way. This is one part of the list.

This assay is described as follows: Primary qHTS assay for Inhibitors of ovarian cancer metastasis using an organotypic tumor microenvironment (TME) model.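 For activity change, negative = inhibition: plate controls were DMSO wells for no effect and tomatine positive control wells for full effect.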 Note: nearly all actives have a fitted effect of over 65% in size. Particulars: SKOV3ip1-GFP adhesion/invasion on 3D omental model, fluorescence; series mostly up to 45.8 µM; activity change, negative = inhibition: at the top concentration. The essentials:
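Adhesion/invasion was scored as fixed GFP-labeled SKOV3ip1 cell counts (488/509 nm), normalized to DMSO and tomatine controls. Cancer cells in serum-free medium, with four compound doses (0.36-46 umol/L), sat 2 hr at RT then 16 hr at 37 C on a 48 hr fibroblast/mesothelial/ECM culture.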
On the technique in general: qHTS replaces the single test concentration by a dilution series.
As to `Cc1ccccc1CN1c2ccccc2-c2nc(SCC(=O)NCCc3ccccc3)ncc2S1(=O)=O`, the “activity change, negative = inhibition” value was inactive: -7.54%.
For `CCN(CC)c1ccc(-n2nc3cc(C)c(NC(=O)c4ccccc4F)cc3n2)cc1`, the call was inactive.
Take `CCS(=O)(=O)NCC(c1ccco1)N1CCN(c2ccc(OC)cc2)CC1` (configuration not stated): the “activity change, negative = inhibition” value is inactive: -0.137%.
In the case of `Cc1cccc(NC(=O)CSc2nnc(C)c(=O)[nH]2)c1`, the outcome was inactive.
Take `Cc1ccc(C(CC(=O)Nc2cc(C)cc(C)c2)N2Cc3ccccc3C2=O)cc1` (configuration not stated): the “activity change, negative = inhibition” value is inactive: -1.91%.
As to `Cc1cccc(NC(c2cccc(F)c2)c2ccc3ccc(C)nc3c2O)n1` (configuration not stated), the call was inactive.
As to `Cc1nc2ccc(S(=O)(=O)NC(C(=O)NCc3ccccc3Cl)C(C)C)cc2s1` (configuration not stated), the “activity change, negative = inhibition” value was inactive: 9.23%.
On the same count and under the same terms, with `CC1CCN(S(=O)(=O)c2ccc3c(c2)N(CC(=O)NCc2ccccc2Cl)C(=O)CS3)CC1` the figure was inactive: -3.13%.
Take `c1ccc(-c2cc(-c3ccccc3)c3c(n2)-c2ccccc2OC3)cc1`: the call was inactive.
As for `CC1CCC(NC(=O)c2ccc3c(c2)N(Cc2ccccc2F)C(=O)c2ccccc2S3)CC1` (configuration not stated), the call was inactive.
The same measure, in the same setting: with `CCCn1c(=N)c(C(=O)NC2CCCC2)cc2c(=O)n3cc(C)ccc3nc21` the entry was “inactive”.
Regarding `NC(=O)CSc1nc2ccc(NC(=O)COc3ccccc3)cc2s1`, the “activity change, negative = inhibition” value was inactive: -6.93%.
On the same count and under the same terms, next, `COc1ccc(OC)c(CNS(=O)(=O)c2c(C(=O)N3CCC(C)CC3)c(C)n(C)c2C)c1`: inactive: 2.61%.
On to `Cc1cc(C)cc(NC(=O)Cn2nnc(C(=O)NCCc3ccccc3)c2N)c1`, for which the outcome was inactive.
On the same count and under the same terms, with `CSc1ncc(Cl)c(C(=O)NCc2ccc(C)cc2)n1` the entry was “inactive”; with `COc1ccc(C2C(=O)N(C3CCC(C)CC3)CC(=O)N2Cc2ccc(C)cc2)cc1OC` (configuration not stated), “inactive”.
As to `Cc1ccc2c(CC(=O)N3CCN(c4cccc(Cl)c4)CC3)coc2c1`, the “activity change, negative = inhibition” value is inactive: -23.8%.
Same read-out and setting: next, `O=C(Nc1cccc(C(F)(F)F)c1)C1CCCN(S(=O)(=O)c2cccc3nsnc23)C1` (configuration not stated): inactive: -16.6%; `CCCCNc1ccc(-c2nc(-c3ccccc3)no2)cc1[N+](=O)[O-]`: inactive: -6.48%.
Take `CCOc1ccccc1NC(=O)CSc1c(C)cnc2c1c(=O)n(C)c(=O)n2C`: the “activity change, negative = inhibition” value is inactive: -23.3%.
With `Cc1ccc(CCNC(=O)c2ccc(CS(=O)(=O)c3ccc(Br)cc3)o2)cc1`, the outcome was inactive.
As for `COc1cc(Nc2nc(SCc3ccccc3F)nc3ccccc23)cc(OC)c1`, the “activity change, negative = inhibition” value is inactive: -3.88%.
Consider `CCOc1ccc(C(=O)NCCc2sc(-c3ccc(C)cc3)nc2C)cc1`, for which the “activity change, negative = inhibition” value is inactive: 0.658%.
With `Cc1ccc(Sc2ccc(N3CCCC(C(=O)Nc4ccc(Cl)cc4)C3)nn2)cc1` (configuration not stated), the call was inactive.
The same measure, in the same setting: next, `CC(C)NC(=O)CSc1nc2ccccc2nc1N1CCCCC1`: “inactive”.
In the case of `COc1ccccc1N1CCN(CCCNC(=O)c2cnn(-c3ccccc3Cl)c2C2CCN(C(=O)OC(C)(C)C)CC2)CC1`, the “activity change, negative = inhibition” value is inactive: -5.22%.
Turning to `CC(C)CCN1C(=O)N(c2ccccc2)C(=O)C1CC(=O)Nc1ccc(Cl)cc1` (configuration not stated), the “activity change, negative = inhibition” value was inactive: 2.05%.
